Data as given in PMC4336329 (PLoS ONE, 2015).
Among all 310,000 compounds or so, about 2,200 (0.71%) showed an effect of 50% or more. Effects have a minus sign here. Some of the results follow.

molecular target: human ether-à-go-go-related gene (hERG) potassium channel (human, UniProt Q12809); assay: primary screen, population patch clamp on CHO cells stably expressing hERG
Sequence (Q12809 whole entry, looked up): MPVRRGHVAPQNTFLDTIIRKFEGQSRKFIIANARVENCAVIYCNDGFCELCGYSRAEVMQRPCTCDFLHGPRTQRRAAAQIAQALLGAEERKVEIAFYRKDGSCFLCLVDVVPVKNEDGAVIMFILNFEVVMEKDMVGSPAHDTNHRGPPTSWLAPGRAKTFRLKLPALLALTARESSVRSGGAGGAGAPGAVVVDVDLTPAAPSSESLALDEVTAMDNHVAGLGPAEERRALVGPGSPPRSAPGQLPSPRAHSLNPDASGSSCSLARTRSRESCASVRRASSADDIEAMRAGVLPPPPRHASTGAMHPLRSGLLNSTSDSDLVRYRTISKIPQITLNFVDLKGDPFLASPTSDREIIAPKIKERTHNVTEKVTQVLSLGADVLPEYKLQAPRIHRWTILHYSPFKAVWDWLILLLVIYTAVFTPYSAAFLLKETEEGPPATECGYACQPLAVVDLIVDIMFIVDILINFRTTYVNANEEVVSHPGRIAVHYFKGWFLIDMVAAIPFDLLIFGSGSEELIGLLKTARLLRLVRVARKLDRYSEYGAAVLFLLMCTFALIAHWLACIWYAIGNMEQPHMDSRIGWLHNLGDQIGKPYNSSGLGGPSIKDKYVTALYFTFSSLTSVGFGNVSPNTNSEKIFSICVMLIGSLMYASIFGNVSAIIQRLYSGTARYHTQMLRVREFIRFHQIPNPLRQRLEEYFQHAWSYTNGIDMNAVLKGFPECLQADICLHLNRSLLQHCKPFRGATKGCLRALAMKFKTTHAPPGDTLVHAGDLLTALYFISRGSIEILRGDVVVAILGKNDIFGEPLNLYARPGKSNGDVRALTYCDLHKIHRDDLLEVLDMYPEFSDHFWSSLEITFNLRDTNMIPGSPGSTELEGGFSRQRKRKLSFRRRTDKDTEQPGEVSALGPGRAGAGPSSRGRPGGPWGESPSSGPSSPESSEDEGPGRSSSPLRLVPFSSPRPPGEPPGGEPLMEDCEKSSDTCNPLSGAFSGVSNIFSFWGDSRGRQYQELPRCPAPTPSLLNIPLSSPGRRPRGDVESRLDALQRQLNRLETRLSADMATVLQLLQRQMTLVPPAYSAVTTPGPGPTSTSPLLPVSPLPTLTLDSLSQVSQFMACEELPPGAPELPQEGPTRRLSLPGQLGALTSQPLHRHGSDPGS

SMILES	hERG current change (%, negative = inhibition) at 1uM [%]
O=C(CN1CCN(Cc2ccc(Cl)cc2)C1=O)N1CCC2(CC1)OCCO2	-0.829
CCC(CC)c1nnc(NC(=O)CCNC(=O)c2ccccc2Cl)s1	-0.0596
CN(C)C(=O)COc1ccc(S(=O)(=O)c2ccc(OCC(=O)N(C)C)cc2)cc1	11.1
COc1ccc(CNc2ncnc3c2[nH]c2cc(OC)c(OC)cc23)cc1	14.9
CCCNC(=O)OC[C@H]1O[C@H](CCO/N=C/c2ccc(C(=O)N3[C@H](c4ccc(C)cc4)[C@@H](C)CC[C@H]3C(=O)OC)cc2)C=C[C@@H]1Oc1ccc(OC)cc1	7.58
CN1CCN(C(=O)CC23CC4CC(CC(C4)C2)C3)CC1	5.9
COc1ccc(NC(=O)Cn2nnc(C(=O)NCc3ccccc3)c2N)c(OC)c1	8.73
COCCn1cc(C(=O)N2CCCC(C)C2)c2c3ccccc3n(C)c2c1=O (stereo not drawn)	7.72
Cc1cc(OC(=O)c2cccc(C(F)(F)F)c2)c([N+](=O)[O-])c(=O)[nH]1	13.6
Cc1ccc(C)c(S(=O)(=O)NCCOc2nc(NC(C)C)nc(NC(C)C)n2)c1	-1.35
COc1cc(OC)cc(C(=O)O/N=C(\N)c2ccncc2)c1	5.41
O=C(c1ccc(S(=O)(=O)c2ccc(F)cc2)c([N+](=O)[O-])c1)N1CCCCCC1	3.83
CC1=C(C(=O)Nc2ccccc2C(=O)NC2CCCCC2)SCCO1	7.83
CCc1nc(SCc2cc(Cl)ccc2OC)n[nH]1	18.4
CCOc1ccc(C(C)=O)cc1CN1C(=O)NC2(CCCCCC2)C1=O	13.5
CCOC(=O)c1cnc(SCC(=O)N2CCOCC2)nc1N	12.3
CCN1C(=O)C(O)(CC(=O)c2ccc3c(c2)OCCO3)c2ccccc21 (stereo not drawn)	5.48
Cc1ccc(-n2c(-c3ccc(Cl)cc3)c[n+]3c2CCC3)cc1.[Br-]	-17.3
Cn1c2c(c(=O)n(C)c1=O)C(c1ccccc1Cl)CC(=O)N2 (stereo not drawn)	12
CCn1c(=O)n(CCc2ccccc2)c(=O)c2c3c(sc21)CCCC3	3.23
Cc1ccc2c(c1)cc(C(=O)N1CCN(c3ccccn3)CC1)n2C	12

SMILES	hERG current change (%, negative = inhibition) at 1uM [%]
C/C(CC(=O)Nc1ccccc1Cl)=N\NC(=O)C(=O)NCCO	-0.701
CCOC(=O)c1c(NC(=O)C2CC(Cl)=CCC2C(=O)O)sc2c1CCCCC2 (stereo not drawn)	9.14
CCCCN1C(=O)CCC(C(=O)O)C1c1ccccc1 (stereo not drawn)	-2.27
COc1cc(CN2CCCC(C(=O)c3ccc4c5c(cccc35)CC4)C2)cc(OC)c1O (stereo not drawn)	15.6
O=C(Cc1ccc(Br)cc1)OCC(=O)c1ccc2c(c1)OCCO2	10.1
COc1ccc(C(=O)N2CCC(C(=O)NC3CC3)CC2)cc1	13.6
O=C(CSCc1ccccc1)NCc1ccc2c(c1)OCO2	0.344
CC1CN(S(=O)(=O)c2cc(C(=O)N(CCc3ccccc3)Cc3ccccc3)ccc2Cl)CC(C)O1 (stereo not drawn)	13.3
CN(C(=O)COC(=O)c1cc(S(=O)(=O)N2CCOCC2)ccc1F)C1CCS(=O)(=O)C1 (stereo not drawn)	14.2
O=S(=O)(Nc1ccccc1)c1ccc(-c2cnc(C3CC3)o2)cc1	9.09
O=C(O)C/C(=C\c1cccc(NC(=O)c2ccccc2Cl)c1)c1nc2ccccc2s1	4.35
COCCSc1nnc(NC(=O)C2CCN(C(=O)c3ccco3)CC2)s1	18.5
O=C1NC(NS(=O)(=O)c2ccc(Cl)cc2)(C(F)(F)F)C(=O)N1c1ccccc1 (stereo not drawn)	12.6
COc1ccc(-n2c(O)c(/C=N/Nc3nc(C)cc(C)n3)c3ccccc3c2=O)cc1OC	8.03
Fc1ccc(CSc2nnc3ccc(-c4ccncc4)nn23)cc1	-61.2
O=C(NCCCn1ccnc1)c1ccc(Cl)c(S(=O)(=O)N2CCOCC2)c1	6.49
Cc1ncc([N+](=O)[O-])n1S(=O)(=O)c1cc(Cl)ccc1Cl	13.3
CS(=O)(=O)Oc1ccc2c(c1)O/C(=C\c1cccc([N+](=O)[O-])c1)C2=O	7.82
Cc1ccc(S(=O)(=O)Nc2ccccn2)cc1[N+](=O)[O-]	14.6
COc1ccc(S(=O)(=O)N2CCN(C(=O)NCc3ccc(OC)c(OC)c3)CC2)cc1	11.5
Cl.O=C1c2cccc3cccc(c23)C(=O)N1CCN1CCN(CC(O)COCc2ccc(Cl)cc2)CC1 (stereo not drawn)	-32.8
